In all, about 330,000 compounds went through this assay and about 300 (0.091%) were called active. Inconclusive means that the source gave no clear call. Such entries were picked first, then a sample of the others. The call rests on the fitted dose curve; in most records, active means well fitted inhibition curve with a large enough effect; inconclusive means small, poorly fitted or top-dose-only effect, or effect the other way, or another doubt; inactive means no such curve, though single readings can be large or run the other way. No potency is given beside an inconclusive call; the fits are too rough.
Each molecule was assayed against Lysosomal acid glucosylceramidase (Homo sapiens) (UniProt P04062) (assay: qHTS Assay for Inhibitors and Activators of N370S glucocerebrosidase as a Potential Chaperone Treatment of Gaucher Disease). Conditions: N370S GC spleen homogenate, 4MU-glucoside fluorescence; activity change, negative = inhibition: at 59.4 µM (top of the series) unless noted.
In the case of OCCN(CC#CC(O)(c1ccccc1)c1cccc(F)c1)CCO (configuration not stated), the Potency is reported as inconclusive [inhibitor, partial curve, poor fit]. With CCC(CC)NC(=O)COn1nnc2ccc(S(=O)(=O)N3CCOCC3)cc21 the Potency was inconclusive [inhibitor, full curve, poor fit]. For C=C(C)C1CC=C(C)/C(=N\NC(=S)Nc2ccc(C)cc2)C1 (configuration not stated), the Potency was inconclusive [activator, single point]. CC(=O)N1[C@@H]2CC3C4CC=C5C[C@@H](O)CC[C@]5(C)C4CC[C@]3(C)[C@@]21C(C)=O (some centres not stated) was tested, and the Potency was “inactive”. With Cc1cccc(N2C(=O)N3[C@H](c4ccc(Br)cc4)[C@@H]4C(=O)N(C(C)(C)C)C(=O)[C@@H]4[C@]3(C)C2=O)c1 the Potency was inconclusive [inhibitor, full curve, poor fit]. In the case of COC(=O)c1ccc(COc2ccccc2/C=C(\C#N)C(=O)Nc2c(C)cccc2C)cc1, the Potency is reported as “inactive”. With CCCC(=O)Nc1ccc(NC(=O)c2cc3ccccc3o2)c(OC)c1 the Potency was inconclusive [inhibitor, single point]. For Cc1cc(NC(=O)c2c(Cl)cccc2Cl)no1, the Potency was inconclusive [inhibitor, single point]. CCOC(=O)C1=C(C)NC2=C(C(=O)CCC2)C1c1cccs1 (configuration not stated) was tested, and the Potency was “inactive”. CCOC(=O)C1=C(C)NC(C)=C(C(=O)OCC)C1C(=O)OCC(=O)NC1(C#N)CCCCC1 was tested, and the Potency was inconclusive [activator, partial curve]. With OCCOCCN1CCN([C@@H](c2ccccc2)c2ccc(Cl)cc2)CC1 the Potency was “inactive”. COc1cc(OC)cc(-c2nnc3n2N=C(c2ccccc2OC)CS3)c1 was tested, and the Potency was “inactive”. COc1ccc(/C(C)=N/NC(=O)c2nnn(-c3nonc3N)c2-c2cccs2)cc1 was tested, and the Potency was inconclusive [activator, single point]. With COc1cc(OC)c2c(N)c(C#N)c(C(F)(F)C(F)(F)F)nc2c1 the Potency was inconclusive [activator, full curve]. O=C(c1cc(C(F)(F)F)cc(C(F)(F)F)c1)N1CCC2(CC1)CN(c1ccccn1)C2 was tested, and the Potency was inconclusive [inhibitor, partial curve]. With O=C(Nc1ccccc1)c1ccccc1OCc1cccc([N+](=O)[O-])c1 the Potency was inconclusive [activator, partial curve]. COc1ccc(-c2cn3nc(SCC(=O)NCC4CCCO4)ccc3n2)cc1 (configuration not stated) was tested, and the Potency was inconclusive [activator, partial curve]. Cc1nc(C(=O)Nc2ccccc2)sc1C1(C)CC(c2cccnc2)=NO1 (configuration not stated) was tested, and the Potency was inconclusive [activator, single point]. In the case of COc1cccc2c1[C@@H]1CN(CCCCn3c(=O)[nH]c4c(sc5ncc(-c6ccccc6)nc54)c3=O)C[C@@H]1CO2, the Potency is reported as inconclusive [inhibitor, partial curve, poor fit]. In the case of Cc1ccc(NC(=O)c2cnccn2)cc1C, the Potency is reported as “inactive”. With COc1ccc(Cn2c(N)c(C#N)c3nc4ccccc4nc32)cc1 the Potency was inconclusive [activator, partial curve]. In the case of Cc1[nH]c2ccccc2c1C(O)CN1CCN(c2cccc(C(F)(F)F)c2)CC1 (configuration not stated), the Potency is reported as inconclusive [activator, partial curve]. In the case of C/C(CCc1oc2ccc(Cl)cc2c1-c1ccc(C)o1)=N\O, the Potency is reported as inconclusive [activator, single point]. In the case of CSc1nc(NCC(C)O)c2c3c(sc2n1)CN(C)CC3 (configuration not stated), the Potency is reported as inconclusive [activator, partial curve]. CCOC(=O)C1CCN(C(=O)c2cc3c(=O)n4ccccc4nc3n2C)CC1 was tested, and the Potency was inconclusive [activator, single point]. COc1ccc(CNC(=O)CCn2cccc2)cc1 was tested, and the activity change, negative = inhibition was inconclusive: 27.8% [activator]. For O=C(Nc1ccc(-c2nc3ccccc3[nH]2)cc1)C1CCCO1 (configuration not stated), the Potency was “inactive”. With c1ccc(-c2oc3ncnc(NCCN4CCOCC4)c3c2-c2ccccc2)cc1 the Potency was inconclusive [inhibitor, partial curve, poor fit]. For Cc1ccn2c(C(=O)NN=C3CCCCCCC3)c(C)nc2c1, the Potency was “inactive”. For Cc1ccc2cccc(NC3OC(=O)c4ccccc43)c2n1 (configuration not stated), the Potency was “inactive”. With O=C(c1cnccn1)N(Cc1cccs1)C1(C(=O)NC2CCCCC2)CCCCC1 the Potency was inconclusive [inhibitor, single point]. With CCc1c2c(nc3c(C(C)C)cccc13)-c1cccc(=O)n1C2 the Potency was inconclusive [activator, partial curve]. In the case of COc1ccccc1/C=C/C=C1\Oc2c(ccc(O)c2CN2CCN(CCO)CC2)C1=O, the Potency is reported as inconclusive [inhibitor, partial curve]. C=CCC(C)(O)c1ccco1 (configuration not stated) was tested, and the Potency was “inactive”. O=C(OCc1nc2ccccc2s1)[C@@H]1CCCN1S(=O)(=O)c1ccccc1F was tested, and the Potency was inconclusive [activator, single point]. For O=C1CC(c2ccco2)CC2=C1C(c1ccccc1)n1nc(C(F)(F)F)nc1N2 (configuration not stated), the Potency was inconclusive [activator, full curve]. Cc1ccc(S(=O)(=O)NC(CC(C)C)C(=O)Oc2ccc3c4c(c(=O)oc3c2)CCC4)cc1 (configuration not stated) was tested, and the Potency was inconclusive [activator, partial curve]. For CCOCCCNC(=O)c1cc2c(=O)n3ccccc3nc2s1, the Potency was inconclusive [activator, partial curve]. With Cc1cccc(/C=C/C(=O)c2ccc(N3CCOCC3)cc2)c1 the Potency was inconclusive [activator, single point]. With N/C(=N\OC(=O)COc1ccc(Cl)cc1Cl)c1ccncc1 the Potency was “inactive”. With CCC1(c2ccccc2)NC(=O)N(CC(=O)Nc2ccc3c(C)cc(=O)oc3c2)C1=O (configuration not stated) the Potency was inconclusive [activator, partial curve]. For COCCNC(=O)Cn1cnc2c(cnn2-c2ccc(C)cc2)c1=O, the Potency was inconclusive [inhibitor, full curve, poor fit]. In the case of Cn1c(-c2cc3ccc(OC(=O)C(C)(C)C)cc3oc2=O)nc2ccccc21, the Potency is reported as inconclusive [activator, single point]. Cc1cccc(N(CC(=O)NC(C)(C)C)C(=O)CNC(=O)c2cccs2)c1 was tested, and the Potency was inconclusive [inhibitor, partial curve]. Cc1cccc(NC(=O)Nc2ccc(Cl)cc2)n1 was tested, and the Potency was inconclusive [activator, full curve]. In the case of O=C(NCCc1c[nH]c2ccccc12)c1ccc(Cl)cc1, the Potency is reported as “inactive”. In the case of O=C(COc1ccc(-c2ccccc2)cc1)N/N=C/c1ccccc1Br, the Potency is reported as inconclusive [activator, partial curve]. For Cc1ccc(O)c(Nc2c3ccccc3nc3ccccc23)c1, the Potency was inconclusive [activator, partial curve]. CCCCOC1(c2ccccc2)OC(=O)c2ccccc21 (configuration not stated) was tested, and the Potency was inconclusive [inhibitor, single point]. For CCOc1ccc(S(=O)(=O)Nc2nc3ccccc3nc2-n2ccc(=NC(=O)c3ccccc3C)cc2)cc1, the Potency was inconclusive [inhibitor, full curve]. With O=C(Nc1cc(S(=O)(=O)N2CCOCC2)ccc1Cl)C(=O)c1c(-c2ccccc2)cc2ccccn12 the Potency was inconclusive [inhibitor, full curve, poor fit]. For O=c1cc(N2CCCCC2)c(-c2ccccc2)nn1Cc1ccccc1Cl, the Potency was inconclusive [activator, partial curve]. In the case of COCCCNC(=S)N(CCN(C)C)Cc1cc2cc3c(cc2[nH]c1=O)OCCO3, the Potency is reported as inconclusive [activator, partial curve]. With COc1ccc(S(=O)(=O)N2CCC(C(=O)N[C@H](C(=O)NCc3ccncc3)C(C)C)CC2)cc1 the Potency was inconclusive [inhibitor, partial curve, poor fit]. In the case of Cc1ccccc1N=C(NOCc1ccc(Cl)cc1Cl)c1nonc1N, the Potency is reported as inconclusive [activator, partial curve]. For CCOC(=O)CC(=O)Nc1nnc(C(C)C)s1, the Potency was inconclusive [inhibitor, single point]. O=C(c1noc2c1CCCCC2)N1CCOCC1 was tested, and the Potency was inconclusive [inhibitor, single point]. In the case of N#C/C(=C\c1ccc(N2CCCCC2)o1)C(=O)Nc1cccc(Br)c1, the Potency is reported as “inactive”. With O=C1CCCc2nc(N3CCN(C(c4ccccc4)c4ccccc4)CC3)ncc21 the Potency was “inactive”. N#CCCN(C(=O)CSc1ccc2c(c1)OCCO2)c1ccccc1 was tested, and the Potency was “inactive”. C/C(=N\OC(=O)NC(C)C)c1sc(-c2ccccc2)nc1C was tested, and the Potency was “inactive”. With O=C(COC(=O)CCC(NC(=O)OCc1ccccc1)C(=O)OCC(=O)Nc1ccccc1)Nc1ccccc1 (configuration not stated) the Potency was inconclusive [activator, partial curve]. CN(C)c1cc(Cl)c2nonc2c1N was tested, and the Potency was “inactive”. With CCOc1cc(CNCCc2ccc(S(N)(=O)=O)cc2)ccc1OCc1ccc(Cl)cc1 the Potency was inconclusive [inhibitor, partial curve]. With O=C(Cn1cnc2c(nnn2Cc2ccc(Cl)cc2)c1=O)OCc1ccccc1 the Potency was “inactive”. For Cc1ccc(N(Cc2cc(=O)[nH]c3ccccc23)C(=O)CCl)c(C)c1, the Potency was “inactive”. For C=CCN(CC=C)C(=O)C1CCN(S(=O)(=O)c2ccc(N3CCCC3=O)cc2)CC1, the Potency was inconclusive [inhibitor, partial curve].

— PubChem BioAssay AID2101 (National Center for Advancing Translational Sciences (NCATS), 2009)
Potency means the concentration at half of the fitted maximal effect.
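Wherever activity change, negative = inhibition is given: 0% = full enzyme activity and -100% = no enzyme basal.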
